Patent US20170253656A1 (SUTRO BIOPHARMA, published 2017)

Target: T1, hu-CD74 antigen (R&D SYSTEMS catalog #3590-CD-050) (human, UniProt P04233-2 73-232, limits assumed)
T1 construct: Bought antigen; also called rhCD74; human CD74
T1 sequence (looked up): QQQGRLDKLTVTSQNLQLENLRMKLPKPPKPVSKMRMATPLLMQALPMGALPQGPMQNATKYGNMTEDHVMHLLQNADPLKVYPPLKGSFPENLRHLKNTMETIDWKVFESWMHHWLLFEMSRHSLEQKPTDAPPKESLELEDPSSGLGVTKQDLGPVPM
Assay: SPR (Biacore), scFv-Fc captured on anti-human Fc, human CD74 analyte, 1:1 model
Method: Purified ScFv-Fc is captured on an anti-human Fc surface at a concentration of 10 μg/mL, and different concentrations of antigen (20 nM, 10 nM, 5 nM and 0 nM of human CD74, R&D Systems) are passed over the chip surface to which the ScFv-Fc is bound. Data is fit to a 1:1 binding model using BIACORE evaluation software.

Kd: 0.354 nM
koff: 0.00012 s⁻¹
kon: 338000 M⁻¹ s⁻¹
B1: SP-007377, 1251-B08-gm_1337_A09-gm ScFvFc (Fc fusion)
chain: QVQLVESGGGVVQPGRSLRLSCAASGFNFSDYGMHWVRQAPGKGLEWVAVIWYDGSISYYADSVKGRFTISRDNSKNTLYLQMNSLRAEDTAVYYCARGGTVEHGAVYGTDVWGQGTTVTVSSGGGGSGGGGSGGGGSDIQMTQSPSSVSASVGDRVTITCRASQGIGSWLAWYQQKPGKAPKLLIYAADRLQSGVPSRFSGSGSGTDFTLTISSLQPEDFATYYCQQYHTYPLTFGGGTKVEIKAAGSDQ[human IgG1 Fc with changes omitted]GSGDYKDDDDKGSGHHHHHH
notes: scFv-Fc; also called Anti-CD74 scFv-Fc (1251-B08-gm_1337-A09-gm); 1251-B08-g_1337-A09-g scFv-Fc
